Laboratory results taken from PMC12136788.
The list shows a part of the results.

B1: chr14:102551731:102551732:-_ENSG00000080824_ENST00000216281|hu_hu|FALSE|FALSE (ssRNA)
RNA: GGGAGUUCUACAGUCCGACGAUCCACAAUCUCCUUUAUUCUUCGUUCCUCCAAGUACUCAGUUUGGUCUUCUUUCAGGUGUAGGAUAACUUUUGUUCCACGACCCAUAGGUUCACCUGUGUCUGUCCUCACUGUGAAUGAUCCCAACAGAGGAUUGAGCAUCA
B2: chr5:92386950:92386951:-_ENSMUSG00000029397_ENSMUST00000031345|mus_hu|motif|central (ssRNA)
RNA: GGGAGUUCUACAGUCCGACGAUCCUGUUGGGCAUGUUGAAUUUUUUCACAGUUUAUGCACUGCACUUCCUUCACUUUAAAGCGAUCGGGUUGAUGAUCUUCAUUGUUAUCAUGACACAAGCGGCAAGUAUAAAGCUUGUCACACAACAGAGGAUUGAGCAUCA
B3: chr12:79978091:79978092:+_ENSMUSG00000021116_ENSMUST00000071230|mus_hu|FALSE|FALSE (ssRNA)
RNA: GGGAGUUCUACAGUCCGACGAUCGCUUUCCAGCUGCUCAUCCUUGGUGUAUUCUAACACCUCAGCAACAUGACGAAGAAUGCUAUAAACAGUUUUGGAUUUUGUGAAUUUGUCUUCACAUUUGAUUGCUUCCUCUGGAGAAACCAACAGAGGAUUGAGCAUCA
B4: chr13:96295345:96295346:-_ENSG00000134874_ENST00000376829|hu_hu|FALSE|FALSE (ssRNA)
RNA: GGGAGUUCUACAGUCCGACGAUCGCACCCAGAACCCUUACAAACUUGGGUCGGGGCUGCAUUCUGGGCUUUGGAGAGGCUAAAAUAUUUCUAGCAGCGACUUGUAGACCUCAGGCCUCUCAUUUCUAUGGGUCUUCUGGGGGCCAACAGAGGAUUGAGCAUCA
B5: 66220149_66220269_713_CDS_ENSMUSG00000038664_ENSMUST00000042824|mouse|control|control (ssRNA)
RNA: GGGAGUUCUACAGUCCGACGAUCCAUAGGAGGAAUCUUGCUUUCAUUUGCUAAAGACAAUGGAGGCAAAGAGCUCACAACUUCAAUUGCAGUAUGAAUAACGUCGUUGCAGAGACUGAGGCCAGGUCCCGACACAGGCAUCAUCAACAGAGGAUUGAGCAUCA
B6: 151522499_151524887_504_3pUTR_ENSMUSG00000034021_ENSMUST00000016569|mouse|control|control (ssRNA)
RNA: GGGAGUUCUACAGUCCGACGAUCUAUAAACAUAAAUAUAUCCUUUAGUUUAUCGGGAGACGUGUAAGGAGCCUCAGGAGCAUAAAUCCUGAAAAUAUCAGCAAGGCAGCAAGCCACCAGUAAACGAACAUCUUUAUCAGGAUGCAACAGAGGAUUGAGCAUCA
B7: chr10:73576327:73576328:-_ENSG00000197746_ENST00000394936|hu_mus|FALSE|FALSE (ssRNA)
RNA: GGGAGUUCUACAGUCCGACGAUCCCCACUGCCAGGCAGACGCUUCACUCAUGAGGUGAACAGGCAGGUCAACAAGAGCUACAGGUGGUGGGAAAGCCGUGCAGGACCCCAAACAGCCAGGCAGAGGCCACACGGUCAAGGGCCCAACAGAGGAUUGAGCAUCA
B8: chr1:46159212:46159213:+_ENSG00000159596_ENST00000372025|hu_mus|hu_hu_hu_mus_True|38_108 (ssRNA)
RNA: GGGAGUUCUACAGUCCGACGAUCUCUGAUCCCACCCAAGAAAGCUAGGAAACCGGCUCCAUAAGCCAUCUGAGUGAAAGCUAGGACGGGGAUAUAAGUUUUUGUCAUUACCAUGAGAAGUGGGGGAGCAGUAAAGGGGAUUAACAACAGAGGAUUGAGCAUCA
B9: chrX:71549762:71549763:+_ENSMUSG00000019087_ENSMUST00000019231|mus_mus|mus_mus_mus_hu_False|1_1 (ssRNA)
RNA: GGGAGUUCUACAGUCCGACGAUCAAACCCGUGUACUUCUUAUUGUUAGCACAACAUCACCAGAAAACGAUAACGACAGCCAAGCAGGACAGACAGUUAAGUAGUACUUCCACACUCCCAAACUCAGGGAGCCCUAUAGUUCAUCAACAGAGGAUUGAGCAUCA
B10: chr4:144460044:144460045:+_ENSG00000153147_ENST00000283131|hu_mus|hu_hu_hu_mus_False|78_78 (ssRNA)
RNA: GGGAGUUCUACAGUCCGACGAUCACGGUCCAUAGCCUGAAGAUCAACUUGCGGAUUCCAAUCAGAAUCAUAUAAAAUGACUACAUCAGCAGUUGCAAGAUUGAUGCCCAGACCACCAGCACGUGUGCUUAGCAUAAAUACAAACAACAGAGGAUUGAGCAUCA
B11: chrX:20248820:20248821:+_ENSMUSG00000001924_ENSMUST00000001989|mus_mus|mus_mus_mus_hu_True|78_108 (ssRNA)
RNA: GGGAGUUCUACAGUCCGACGAUCGGCAAAGUCAGUCACCACAAAGUCAGGUUCUGCCAGUGAUGCUACCAAGGAUUUAAAGCUAAUCUUCUUAGGUACUUUGACCUGACUGACGAUGCCUCCACGGAUGUAGUCGGAGAAGUUCAACAGAGGAUUGAGCAUCA
B12: chr11:87793471:87793472:-_ENSMUSG00000020483_ENSMUST00000020775|mus_mus|mus_mus_mus_hu_False|1_58 (ssRNA)
RNA: GGGAGUUCUACAGUCCGACGAUCUGGACUUGAAAAUAAAAGAAUAAGCUGGAUCCCCCACCCCCCCACAUUGUCAACCCUAUGCGAGAGUUUUGAAGGCGACUCAUGAAAAUCAGCAGCUCAAACGGCAAUGACCACCCACCCCAACAGAGGAUUGAGCAUCA
B13: chr9:95013113:95013114:-_ENSG00000196305_ENST00000443024|hu_hu|hu_hu_hu_mus_False|28_88 (ssRNA)
RNA: GGGAGUUCUACAGUCCGACGAUCCUCAGUCAGAAAGGGCGUGUAAGGAGCCAUAAGUCUGCACAGAGAAAGCAGGACACUGAACAGUGUCUCCAGAGCCAUGACACAAUCCUCCAUCCCACUCUCACCCUUUAACCUCCUCCUCAACAGAGGAUUGAGCAUCA
B14: 59226069_59226793_829_3pUTR_ENSMUSG00000028381_ENSMUST00000030074|mouse|control|control (ssRNA)
RNA: GGGAGUUCUACAGUCCGACGAUCCCAACCCCACUUUCUCUGUCAUCUGAUUCACCAUGUCAGUUAAUGUGUCUGGGAUGACUCUUAUUCCACUAUCACAAAUCCAUAUGAGAUCAUAUUUUGCAACUUCAUAUGCUGGCAUCACAACAGAGGAUUGAGCAUCA
B15: chr10:60036935:60036936:+_ENSG00000122873_ENST00000333926|hu_hu|motif|central (ssRNA)
RNA: GGGAGUUCUACAGUCCGACGAUCGUGAAGGUUUAUCAUAGCUUUAUUUCGAUGAUCUUUAACAUAAAAUCUUUUGUAAGCGGGAUAACCAAUUGCAGCUGUCCCAGCAGCAAUGGUAACUGCUGCGAUCCAUUCAACUCGUACCAACAGAGGAUUGAGCAUCA
B16: chr1:109605286:109605287:-_ENSG00000197780_ENST00000461096|hu_mus|hu_hu_hu_mus_True|78_78 (ssRNA)
RNA: GGGAGUUCUACAGUCCGACGAUCAAGUUUCAGAGUAACAUUCAGUAACCUCUUUAACAAUUGUAAUCCUUAUUAUAAGCUAAGCAGAAUAAUAAUUUAAUACCGUAAGUGAACUACACACAAAGCCUGAACCGCGAAAAUGGUCAACAGAGGAUUGAGCAUCA
B17: chrX:101971874:101971875:+_ENSG00000158301_ENST00000332262|hu_mus|FALSE|FALSE (ssRNA)
RNA: GGGAGUUCUACAGUCCGACGAUCUAUAGUGAGAUGUCUAAGCAUCCUCAUUCCAGUUAGCUGUUCAGGGGAAUUCACGCUAUGUGAAAGUGUCUCCUCACACACUUGACAAAUAAAUGUCUCAAUCAUGUUUAGAUUUGGAUACAACAGAGGAUUGAGCAUCA
B18: 128108328_128108448_903_CDS_ENSMUSG00000049858_ENSMUST00000054764|mouse|control|control (ssRNA)
RNA: GGGAGUUCUACAGUCCGACGAUCAGCCCAGCGUGCUGUGCUGAUGGCCCCUGUUCUCCAUUCCAGACCUUUCACUUCCUUGACCUUACUCAUUUCGGAGCGCCGGUUACCAGCACACUGCAGAGUGACAGUGACCUCAUGUUUCAACAGAGGAUUGAGCAUCA
B19: chr12:3048583:3048584:+_ENSG00000078246_ENST00000448120|hu_hu|FALSE|FALSE (ssRNA)
RNA: GGGAGUUCUACAGUCCGACGAUCGGGAGAAGGGCUCCCUGCCUGACUGUUCUCUCAUUCACACGCCAGCUUACUGUCAAAGCUAGAAAGACCGAUGCCAAAGGCCUGUACUGCACAAAGUGGGUAGUUGUAAUCCAGUGUGAACAACAGAGGAUUGAGCAUCA
B20: chr1:192779330:192779331:+_ENSG00000116741_ENST00000235382|hu_mus|FALSE|FALSE (ssRNA)
RNA: GGGAGUUCUACAGUCCGACGAUCUUGCUGUUUGCUUUUCUUGCCAGUUUUGGGCUUCCCAGGAGCAGAGGAAUUCUGCAAGAAGUAGCUCAAACGGGUCUUCCAAUCCUUUAAGAGUGUCCGCUUCAUUUUCUCCCGCUUCUCCAACAGAGGAUUGAGCAUCA
B21: chr4:117881997:117881998:-_ENSMUSG00000033295_ENSMUST00000150096|mus_mus|FALSE|FALSE (ssRNA)
RNA: GGGAGUUCUACAGUCCGACGAUCUGUCCUUCCGCAGAAGUUGUACAAGAAAGGAUCCAACGUGAACUCAAAAAGGAAAACAAACAAGUCCCAACUCCCACAGCAGCCCCAUCUGCAGUGAAAGACCUGCAAAAGCAAAGUCGGCAACAGAGGAUUGAGCAUCA
B22: chr9:62645482:62645483:-_ENSMUSG00000032244_ENSMUST00000034775|mus_hu|FALSE|FALSE (ssRNA)
RNA: GGGAGUUCUACAGUCCGACGAUCUACUGUGGUAUGGUUCACGUUGGCUCCAUGGCUGACUAGAAGUUUAACAACUUCAAAAUGUCCUGCUCCAGCUGCACACCAAAGAGCAGUGGCACCAUCAAUGACAUACCCGUCGAAGCGCAACAGAGGAUUGAGCAUCA

biological target: T1, UNK ZnF1-3 (human, UniProt Q9C0B0 31-174); assay: nsRBNS (natural sequence RNA bind-n-seq); RBNS binding buffer (assumed for nsRBNS): 25 mM Tris pH 7.5, 150 mM KCl, 3 mM MgCl2, 0.01% Triton X-100, 500 ug/ml BSA, 20 U/ml SUPERase-In, 4 C; UNK is unkempt and MSI1 is Musashi-1; names of the RNAs are library labels; protein concentration not given here; high values mean tight binding
T1 sequence: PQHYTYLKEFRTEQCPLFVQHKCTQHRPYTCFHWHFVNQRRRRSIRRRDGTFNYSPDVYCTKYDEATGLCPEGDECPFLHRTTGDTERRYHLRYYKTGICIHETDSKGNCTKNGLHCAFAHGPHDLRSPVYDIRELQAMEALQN

| Binder | binding signal [enrichment R] |
| --- | --- |
| B1 | 0.582 |
| B2 | 0.472 |
| B3 | 0.601 |
| B4 | 0.939 |
| B5 | 1.49 |
| B6 | 1.74 |
| B7 | 1.47 |
| B8 | 1.11 |
| B9 | 1.45 |
| B10 | 1.25 |
| B11 | 0.742 |
| B12 | 1.91 |
| B13 | 1.29 |
| B14 | 0.983 |
| B15 | 0.571 |
| B16 | 0.908 |
| B17 | 0.871 |
| B18 | 0.836 |
| B19 | 1.34 |
| B20 | 0.655 |
| B21 | 1.19 |
| B22 | 0.893 |
